In ChEMBL document CHEMBL1201862, “PubChem BioAssay data set” (2004):

These compounds were tested on NCI-H322M (assay: DTP human tumour cell line panel, 48 h).

| SMILES | GI50 |
| --- | --- |
| O=C(Cc1csc(-c2nc(CC(=O)NNc3ccccc3)cs2)n1)NNc1ccccc1 | inactive: > 100 µM |
| CC(Oc1ccccc1Cl)C(=O)NN1C(=O)CSC1c1ccc(Cl)cc1 (stereo not drawn) | inactive: 19.5 µM |
| COC(=O)CCCc1nc2ccccc2nc1/N=N/c1ccccc1 | inactive: > 100 µM |
| Cc1ccc(S(=O)(=O)CN2C(=O)C(c3ccccc3)(c3ccccc3)C23OC(c2ccc(Cl)cc2)=CC3=O)cc1 (stereo not drawn) | inactive: > 10 µM |
| O=C(O)/C=C/n1c2ccccc2c(=O)c2ccccc21 | inactive: > 100 µM |
| Cc1ncc(CO)c(CN)c1O | inactive: > 100 µM |
| CN(C(=O)C12C3(C(=O)C(C)(C)C)C4C5(C#N)C3C1(C(=O)C(C)(C)C)C5C42C(=O)C(C)(C)C)C(C)(C)C (stereo not drawn) | inactive: > 50 µM |
| CCOC(=O)c1[nH]c(-c2[nH]c(-c3[nH]c(-c4[nH]c(C(=O)OCC)c(C)c4C(=O)OCC)c(C(=O)OCC)c3C)c(C)c2C(=O)OCC)c(C(=O)OCC)c1C | inactive: > 100 µM |
| Oc1[nH]c(Nc2cccc(CC(F)(F)F)c2)nc2ncnc1-2 | inactive: > 100 µM |
| Cc1c2n(c(=O)[nH]c1=O)C1OC(CO)C(O2)C1O (stereo not drawn) | inactive: > 100 µM |
| C=CCCCN(C(=O)c1ccccc1)c1ccc(C(=O)OC)o1 | inactive: > 100 µM |
| C=CC(=O)Nc1ccc(NC(=O)C=C)c2c1C(=O)c1ccccc1C2=O | inactive: 36.7 µM |
| C=CCc1cc(-c2n[nH]c(=S)[nH]2)ccc1N/N=N/c1ccc(C(=O)O)cc1 | inactive: > 100 µM |
| Clc1cccc(C2SCc3nc4ccccc4n32)c1Cl (stereo not drawn) | inactive: 22.1 µM |
| O=C(OCC1CCCN2CCCCC12)c1cccnc1 (stereo not drawn) | inactive: > 100 µM |
| N#CCN1C(=O)c2cc([N+](=O)[O-])cc3cc([N+](=O)[O-])cc(c23)C1=O | inactive: 21.5 µM |
| Cc1ccc(Nc2sc(C)cc2C#N)c([N+](=O)[O-])c1 | inactive: > 100 µM |
| Cc1ccc(/N=N/C(=N/NC(=O)c2ccccc2)c2ccc(N(CCC#N)CCC#N)cc2C)cc1 | inactive: 47.6 µM |
| CC1(C)C2CCC(N)(C2)C1N (stereo not drawn) | inactive: > 100 µM |
| C=CC(Br)(CBr)CCC(Br)C(C)(C)Br (stereo not drawn) | inactive: 13.9 µM |
| COC12CCC(=O)C=C1c1ccccc1N2C(C)=O (stereo not drawn) | inactive: > 100 µM |
| O=C1OC(c2ccc(Cl)cc2)(c2ccc(Cl)cc2)c2c1ccc1ccccc21 | inactive: > 100 µM |
| O=c1cnn(C2OC(C(O)CO)C(O)C2O)c(=O)[nH]1 (stereo not drawn) | inactive: > 100 µM |
| COc1ccc2c3ccc4c(c3n(C)c2c1)C(=O)C=CC4=O | inactive: > 100 µM |

| SMILES | GI50 |
| --- | --- |
| O=c1[nH]c(=O)n(C2CC(O)C(CO)O2)c2nc3cc4ccccc4cc3nc12 (stereo not drawn) | inactive: 64.1 µM |
| COc1cc(C)c2c(=O)c3ccccc3n(C)c2c1 | inactive: 42.3 µM |
| CCOC(=O)C1(NC(=O)OC(C)(C)C)CCc2[nH]oc(=O)c2C1 (stereo not drawn) | inactive: > 100 µM |
| Cc1ccc2nc3c(Cl)cc(=O)cc-3sc2c1 | inactive: 31.8 µM |
| CC(=O)N(C(=O)CC(=O)NNCc1ccccc1Cl)c1ccc(Cl)cc1 | inactive: > 10 µM |
| Cc1cccc(C(C)C)c1NC(=O)CCl | inactive: 70.6 µM |
| CCCCCCCCCCCCCCCC(=O)OCC(COP(=O)(O)OCCNC(=O)CCSSc1ccccn1)OC(=O)CCCCCCCCCCCCCCC (stereo not drawn) | inactive: > 100 µM |
| NC1=C2C(Br)=CN([C@@H]3O[C@H](CO)[C@@H](O)[C@@H]3O)C2C(=O)N=N1 (stereo partly drawn) | inactive: 6.17 µM |
| CN(C)c1ccc(N=O)c(O)c1.CN(C)c1ccc(N=O)c(O)c1.[SiH4] | inactive: 8.69 µM |
| O=C(NC1CCN(Cc2ccccc2)CC1)c1ccccc1I | inactive: 39.5 µM |
| [O-][n+]1c2c([n+]([O-])c3ccccc31)CCCCCCCCCC2 | inactive: > 100 µM |
| O=C(CCc1nnc2s/c(=C\c3ccc([N+](=O)[O-])cc3)c(=O)n12)Nc1ccc(Cl)c(Cl)c1 | inactive: 64.9 µM |
| CCOC1=C(c2ccccc2)N2CCCCC2O1 (stereo not drawn) | inactive: 7.57 µM |
| C/C(=N\N=C(/[SeH])N1CC2CCC(CC2)C1)c1ccccn1 | active: 0.206 µM |
| O=C(NCc1ccc2ccc3cccnc3c2n1)c1ccc[n+](Cc2ccccc2)c1 | inactive: 51.5 µM |
| Cc1ccc(S(=O)(=O)NC(=O)Nc2cccc(S(N)(=O)=O)c2)cc1 | inactive: > 100 µM |
| Cc1ccc2c(O)cc(-c3ccc(F)cc3)nc2n1 | inactive: 39 µM |
| CCCCNC(=O)N/C=C1\C(=O)Oc2ccccc2C1=O | inactive: 29.7 µM |
| COc1cc(CCCC(O)COc2cccc3c2C2(O)CCCCCC32)cc(OC)c1 (stereo not drawn) | inactive: 19.5 µM |
| CCOc1ccccc1/N=C\c1c2ccccc2cc2ccccc12 | inactive: 26.7 µM |
| Clc1ccc(-c2cc(-c3cc4cc(Br)ccc4nc3Cl)on2)cc1 | inactive: 13.5 µM |
| O=C(CC1OC(O)C(Cl)=C1Cl)c1cccnc1 (stereo not drawn) | inactive: > 100 µM |
| O=c1[nH]c2cc(C(F)(F)F)ccc2nc1CBr | inactive: 16.3 µM |
| CC(=O)OC[C@@H]1[C@H]2CC(=O)O[C@H]2C[C@H]1OC(C)=O | inactive: > 100 µM |

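Method: 48-hour compound exposure of cells in 96-well plates, five concentrations, linear interpolation of endpoints. GI50: concentration for 50% inhibition of growth.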 Active and inactive are the calls of the source. Rule as the data show it: active = GI50 up to about 1.1 µM and inactive = higher.
